The other results are listed elsewhere or left out.
Tests used:
Experiment in all cases: glycan array binding signal (z-score within array); higher = stronger binding
Settings in all cases: glycan notation: IUPAC condensed, linker removed
[1] = target: Neu5Ac(a2-3)Gal(b1-3)[Fuc(a1-4)]GlcNAc(b1-3)Gal(b1-4)[Fuc(a1-3)]GlcNAc
Procedure, shortened: (§1)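 Glycan array data came from 3228 arrays in the Consortium for Functional Glycomics database, and only arrays with an available protein sequence were kept. Glycan names were put into IUPAC-condensed notation, and columns mapping to the same glycan were averaged. The binding signal is a within-array Z-score, averaged across arrays of one protein sequence run at different concentrations or buffers and across linkers. A negative Z-score can be read as non-binding.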

[2] = target: Neu5Ac(a2-3)Gal(b1-3)[GlcNAc(b1-6)]GalNAc
Procedure, shortened: as §1

[3] = target: Neu5Ac(a2-3)Gal(b1-3)[Neu5Ac(a2-3)Gal(b1-4)]GlcNAc
Procedure, shortened: as §1

[4] = target: Neu5Ac(a2-3)Gal(b1-3)[Neu5Ac(a2-6)]GalNAc
Procedure, shortened: as §1

[5] = target: Neu5Ac(a2-3)Gal(b1-3)[Neu5Ac(a2-6)]GlcNAc(b1-3)[Fuc(a1-3)[Gal(b1-4)]GlcNAc(b1-6)]Gal(b1-4)Glc
Procedure, shortened: as §1

[6] = target: Neu5Ac(a2-3)Gal(b1-3)]Neu5Ac(a2-3)Gal(b1-4)]GlcNAc
Procedure, shortened: as §1

[7] = target: Neu5Ac(a2-3)Gal(b1-4)Glc
Procedure, shortened: as §1

[8] = target: Neu5Ac(a2-3)Gal(b1-4)GlcNAc
Procedure, shortened: as §1

[9] = target: Neu5Ac(a2-3)Gal(b1-4)GlcNAc(b1-2)Man
Procedure, shortened: as §1

[10] = target: Neu5Ac(a2-3)Gal(b1-4)GlcNAc(b1-2)Man(a1-3)[GlcNAc(b1-2)Man(b1-4)GlcNAc(b1-2)Man(a1-6)]Man(b1-4)GlcNAc(b1-4)GlcNAc
Procedure, shortened: as §1

[11] = target: Neu5Ac(a2-3)Gal(b1-4)GlcNAc(b1-2)Man(a1-3)[GlcNAc(b1-4)][Neu5Ac(a2-3)Gal(b1-4)GlcNAc(b1-2)Man(a1-6)]Man(b1-4)GlcNAc(b1-4)GlcNAc
Procedure, shortened: as §1

[12] = target: Neu5Ac(a2-3)Gal(b1-4)GlcNAc(b1-2)Man(a1-3)[Neu5Ac(a2-3)Gal(b1-4)GlcNAc(b1-2)Man(a1-6)]Man(b1-4)GlcNAc(b1-4)GlcNAc
Procedure, shortened: as §1

[13] = target: Neu5Ac(a2-3)Gal(b1-4)GlcNAc(b1-2)Man(a1-3)[Neu5Ac(a2-3)Gal(b1-4)GlcNAc(b1-2)Man(a1-6)]Man(b1-4)GlcNAc(b1-4)[Fuc(a1-6)]GlcNAc
Procedure, shortened: as §1

[14] = target: Neu5Ac(a2-3)Gal(b1-4)GlcNAc(b1-2)Man(a1-3)[Neu5Ac(a2-6)Gal(b1-4)GlcNAc(b1-2)Man(a1-6)]Man(b1-4)GlcNAc(b1-4)GlcNAc
Procedure, shortened: as §1

[15] = target: Neu5Ac(a2-3)Gal(b1-4)GlcNAc(b1-2)[Neu5Ac(a2-3)Gal(b1-4)GlcNAc(b1-4)]Man(a1-3)[GlcNAc(b1-4)][Neu5Ac(a2-3)Gal(b1-4)GlcNAc(b1-2)[Neu5Ac(a2-3)Gal(b1-4)GlcNAc(b1-6)]Man(a1-6)]Man(b1-4)GlcNAc(b1-4)GlcNAc
Procedure, shortened: as §1

[16] = target: Neu5Ac(a2-3)Gal(b1-4)GlcNAc(b1-2)[Neu5Ac(a2-3)Gal(b1-4)GlcNAc(b1-4)]Man(a1-3)[GlcNAc(b1-4)][Neu5Ac(a2-3)Gal(b1-4)GlcNAc(b1-4)Man(a1-6)]Man(b1-4)GlcNAc(b1-4)GlcNAc
Procedure, shortened: as §1

[17] = target: Neu5Ac(a2-3)Gal(b1-4)GlcNAc(b1-2)[Neu5Ac(a2-3)Gal(b1-4)GlcNAc(b1-6)]Man(a1-6)[Neu5Ac(a2-3)Gal(b1-4)GlcNAc(b1-2)Man(a1-3)]Man(b1-4)GlcNAc(b1-4)GlcNAc
Procedure, shortened: as §1

[18] = target: Neu5Ac(a2-3)Gal(b1-4)GlcNAc(b1-2)[Neu5Ac(a2-3)Gal(b1-4)GlcNAc(b1-6)]Man(a1-6)[Neu5Ac(a2-3)Gal(b1-4)GlcNAc(b1-2)Man(a1-3)][GlcNAc(b1-4)]Man(b1-4)GlcNAc(b1-4)GlcNAc
Procedure, shortened: as §1

[19] = target: Neu5Ac(a2-3)Gal(b1-4)GlcNAc(b1-3)Gal
Procedure, shortened: as §1

[20] = target: Neu5Ac(a2-3)Gal(b1-4)GlcNAc(b1-3)Gal(b1-3)GlcNAc
Procedure, shortened: as §1

[21] = target: Neu5Ac(a2-3)Gal(b1-4)GlcNAc(b1-3)Gal(b1-4)GlcNAc
Procedure, shortened: as §1

[22] = target: Neu5Ac(a2-3)Gal(b1-4)GlcNAc(b1-3)Gal(b1-4)GlcNAc(b1-2)Man(a1-3)[Neu5Ac(a2-3)Gal(b1-4)GlcNAc(b1-3)Gal(b1-4)GlcNAc(b1-2)Man(a1-6)]Man(b1-4)GlcNAc(b1-4)GlcNAc
Procedure, shortened: as §1

[23] = target: Neu5Ac(a2-3)Gal(b1-4)GlcNAc(b1-3)Gal(b1-4)GlcNAc(b1-3)Gal(b1-4)GlcNAc
Procedure, shortened: as §1

[24] = target: Neu5Ac(a2-3)Gal(b1-4)GlcNAc(b1-3)Gal(b1-4)GlcNAc(b1-3)Gal(b1-4)GlcNAc(b1-2)Man(a1-3)[Neu5Ac(a2-3)Gal(b1-4)GlcNAc(b1-3)Gal(b1-4)GlcNAc(b1-3)Gal(b1-4)GlcNAc(b1-2)Man(a1-6)]GalNAc
Procedure, shortened: as §1

[25] = target: Neu5Ac(a2-3)Gal(b1-4)GlcNAc(b1-3)Gal(b1-4)GlcNAc(b1-3)GalNAc
Procedure, shortened: as §1

[26] = target: Neu5Ac(a2-3)Gal(b1-4)GlcNAc(b1-3)Gal(b1-4)GlcNAc(b1-3)[Neu5Ac(a2-3)Gal(b1-4)GlcNAc(b1-3)Gal(b1-4)GlcNAc(b1-6)]GalNAc
Procedure, shortened: as §1

[27] = target: Neu5Ac(a2-3)Gal(b1-4)GlcNAc(b1-3)Gal(b1-4)GlcNAc(b1-6)[Gal(b1-3)]GalNAc
Procedure, shortened: as §1

[28] = target: Neu5Ac(a2-3)Gal(b1-4)GlcNAc(b1-3)Gal(b1-4)[Fuc(a1-3)]GlcNAc
Procedure, shortened: as §1

[29] = target: Neu5Ac(a2-3)Gal(b1-4)GlcNAc(b1-3)GalNAc
Procedure, shortened: as §1

[30] = target: Neu5Ac(a2-3)Gal(b1-4)GlcNAc(b1-3)[Neu5Ac(a2-3)Gal(b1-4)GlcNAc(b1-6)]GalNAc
Procedure, shortened: as §1

[31] = target: Neu5Ac(a2-3)Gal(b1-4)GlcNAc(b1-6)GalNAc
Procedure, shortened: as §1

[32] = target: Neu5Ac(a2-3)Gal(b1-4)GlcNAc(b1-6)[Gal(b1-3)]GalNAc
Procedure, shortened: as §1

[33] = target: Neu5Ac(a2-3)Gal(b1-4)GlcNAc(b1-6)[Neu5Ac(a2-3)Gal(b1-3)]GalNAc
Procedure, shortened: as §1

[34] = target: Neu5Ac(a2-3)Gal(b1-4)GlcNAc6S
Procedure, shortened: as §1

[35] = target: Neu5Ac(a2-3)Gal(b1-4)[Fuc(a1-3)]GlcNAc
Procedure, shortened: as §1

[36] = target: Neu5Ac(a2-3)Gal(b1-4)[Fuc(a1-3)]GlcNAc(b1-2)Man
Procedure, shortened: as §1

[37] = target: Neu5Ac(a2-3)Gal(b1-4)[Fuc(a1-3)]GlcNAc(b1-3)Gal
Procedure, shortened: as §1

[38] = target: Neu5Ac(a2-3)Gal(b1-4)[Fuc(a1-3)]GlcNAc(b1-3)Gal(b1-4)GlcNAc
Procedure, shortened: as §1

B1: PpFlo1 (Pichia pastoris) (protein)
chain: MGSSHHHHHHSSGLVPRGSHMQESGDGDISDSAYACDIDATRYDGFNATIYEFQPGDGRLTRDPVFMSTGYLNRTQLHSITGVTDPGFSIYTPGVPTTTLYGIPNVNWENLLLELKGYFRAEVSGDYGLSLRNIDDSAILFFGKETAFQCCNENSISNEASTDYSLFTIFRQEGDETTNLDSFTYTQYLEAGKYYPVRTFFVNIERHAVFNFTMTLPDGTELTDFHNYIYQFGALDEEQCQA
- glycan array binding signal (z-score) [1]: -0.228
- glycan array binding signal (z-score) [2]: -0.516
- glycan array binding signal (z-score) [3]: -0.257
- glycan array binding signal (z-score) [4]: 0.465
- glycan array binding signal (z-score) [5]: -0.201
- glycan array binding signal (z-score) [6]: -0.058
- glycan array binding signal (z-score) [7]: -0.357
- glycan array binding signal (z-score) [8]: -0.203
- glycan array binding signal (z-score) [9]: 0.014
- glycan array binding signal (z-score) [10]: -0.491
- glycan array binding signal (z-score) [11]: -0.44
- glycan array binding signal (z-score) [12]: -0.456
- glycan array binding signal (z-score) [13]: 0.115
- glycan array binding signal (z-score) [14]: -0.44
- glycan array binding signal (z-score) [15]: -0.162
- glycan array binding signal (z-score) [16]: -0.022
- glycan array binding signal (z-score) [17]: 0.699
- glycan array binding signal (z-score) [18]: -0.37
- glycan array binding signal (z-score) [19]: -0.31
- glycan array binding signal (z-score) [20]: -0.004
- glycan array binding signal (z-score) [21]: 0.707
- glycan array binding signal (z-score) [22]: -0.19
- glycan array binding signal (z-score) [23]: -0.374
- glycan array binding signal (z-score) [24]: 0.469
- glycan array binding signal (z-score) [25]: -0.661
- glycan array binding signal (z-score) [26]: 0.078
- glycan array binding signal (z-score) [27]: -0.458
- glycan array binding signal (z-score) [28]: -0.38
- glycan array binding signal (z-score) [29]: -0.337
- glycan array binding signal (z-score) [30]: -0.341
- glycan array binding signal (z-score) [31]: -0.453
- glycan array binding signal (z-score) [32]: -0.212
- glycan array binding signal (z-score) [33]: -0.337
- glycan array binding signal (z-score) [34]: -0.025
- glycan array binding signal (z-score) [35]: -0.403
- glycan array binding signal (z-score) [36]: -0.284
- glycan array binding signal (z-score) [37]: 0.047
- glycan array binding signal (z-score) [38]: 0.142

Source: the supplement of paper PMC8728848
